From the RNAGym collection of RNA variant scans (doi:10.1093/nar/gkz1192) come the findings set out here.

B1: CPEB3 Ribozyme (parent)
chain: UAACAGGGGGCCACAGCAGAAGCGUUCACGUCGCAGCCCCUGUCAGAUUCUGGUGAAUCUGCGAAUUCUGCUGUAUAUCUC

Read counts are not given, so values of variants with three or more changes are uncertain.

The data set covers variants of B1. The experiment in a line: self-cleavage, relative activity (ratio to wild type); higher = more cleavage; in vitro, sequencing. Put shortly:
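After error-prone PCR and barcoding, CPEB3 ribozyme mutant libraries were transcribed with T7 RNA polymerase at 37°C for 5 hours, then given 15 min with DNase I before an EDTA stop, and they cleaved during both steps. Reverse transcription with template switching preceded Illumina sequencing. Relative activity divides a variant's cleaved/total read fraction by the unmutated ribozyme's. At least 5 reads were required per variant, and three batches were averaged.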
With A28C A35U U66C, the self-cleavage turned out to be 0.43.

Consider C27G U43C A64C A65G U67C, for which the self-cleavage came out at 0.25. As to A28C A35U U51A U54A C79A, the self-cleavage stood at 0.16. As for A28C U41C G53A G61A, the figure is 0.22; as for U26G A47G U49C U76A, 0.06; as for U26C U31C U43G, 0.31. As for U26G U41C A56G, the self-cleavage came out at 0.53. Under C27U U41G U54C U69A stands 0.07; under U26C U43A U78C, 0.1. As for U26C U72A U74A, the figure is 0.5; as for U26C U72A U74C, 0.72; as for A28G A45G A65G U69A U72A, 0.12. Turning to U26C U60C U72A, the self-cleavage turned out to be 0.07. Regarding A28G A35U U49C U60C A77U U78C, the self-cleavage was found to be 0.06.

For A28G C37A U43G, the self-cleavage is 0.48.

Regarding C27U A35G U43A, the self-cleavage came out at 0.26.

Regarding C27A U31A A65G G70U U78C, the self-cleavage was found to be 0.05. For U26G A35U U60C, the self-cleavage came out at 0.05. With A28G A35U U60C, the self-cleavage worked out at 0.14.

As for U26C U43C U66C U67A, the self-cleavage was 0.38. On to U26C U54C A65C U72C, for which the self-cleavage amounted to 0.16. On to U26G U31C U80C, for which the self-cleavage was found to be 0.33. Regarding U26C U54C U74C, the self-cleavage came to 0.81. On to A28C U49C A64G A75G, for which the self-cleavage was 0.22. For A28C A45G U54A A56G, the self-cleavage was found to be 0.24. On to C27U A57G U66C U72A, for which the self-cleavage is 0.23. As for C27G U43A U72A, the figure is 0.07. In the case of U26C U41C G42U U49C U74C, the self-cleavage worked out at 0.06. Under U26G C50U U76C stands 0.33. For A28G A35G A64U U67A, the self-cleavage is 0.42. Take C27U U41G U49C U51C: the self-cleavage worked out at 0.04.

For the variant U26C U43A U48G C62G U78C, the self-cleavage turned out to be 0.06. As for A28G A56G U72C, the figure is 0.57; as for A28G C29U U43C U51A A64U, 0.11. As for A28G A65U U69C, the figure is 0.45.

Take U26C U51A U69A U80C: the self-cleavage is 0.15. As for U26C U48C A57G, the figure is 0.48. For U26C U31C G52A, the self-cleavage stood at 0.19. Under C27U U60A A75U stands 0.23; under A28G C29U A57U A64C, 0.41. As for U26C U41C G70C, the figure is 0.11; as for U26C U51C U58A, 0.32.

As for U26C U49C U58C C59A U69A U78C, the self-cleavage amounted to 0.09. U26G U31A A64G U72A U80C: the self-cleavage came to 0.05.

On to U26C U43C A47G A65U, for which the self-cleavage came to 0.12. For the variant A28C U74A U80A, the self-cleavage was 0.85. As to U26C U67A U72C U78C, the self-cleavage came out at 0.26. As to C27A A45U U49A U51C, the self-cleavage is 0.09. As for A28G A45G U48C U67C U74C, the self-cleavage was 0.15. As to C27A A28C C32A U67A U74C, the self-cleavage is 0.05. On to C27G G33U U54A, for which the self-cleavage turned out to be 0.07. As to C27G C32U U74G A75G U78A, the self-cleavage turned out to be 0.04.

For U26G U31C U78C, the self-cleavage came to 0.09.

With C27A C32U U43C, the self-cleavage came to 0.46.

Consider C27A A35G U41C A45C U51C A65G U67C, for which the self-cleavage stood at 0.02. Regarding A28C A56U A57G U60C, the self-cleavage was determined as 0.17. As for C27G A35G A65G, the self-cleavage came to 0.1. With C27A A28U A45G A56G U72A A77U, the self-cleavage turned out to be 0.07.

C27U U41C U43C U60C U67C C68U: the self-cleavage is 0.07. Take U26C U41C U49A U78C: the self-cleavage was 0.37. Under A28G C32U U60C U66G U80C stands 0.11; under U26C U60A U78C, 0.26; under A28G A56G A64U U76C, 0.1.

Turning to A28G A35G U74C U80C, the self-cleavage is 1.23. As for A28C A57G A64G, the self-cleavage stood at 0.45. As for A28G A45C A56G, the figure is 0.21. As for U26C U41A A45G, the figure is 0.32; as for U26C U51C U58C A64G U69C C71U, 0.11. In the case of U26C U72C U76C, the self-cleavage was determined as 0.75. In the case of U26C U43C A56U, the self-cleavage stood at 0.24.

Consider U26C U41C U60C U80C, for which the self-cleavage amounted to 0.27.

In the case of U26C U43C U60C, the self-cleavage worked out at 0.28. On to C27A U54A U58A, for which the self-cleavage is 0.19. Under U26C U48C U66C stands 0.4; under A28C U48C U58C U60G G63A U72G U78C, 0.1; under A28G A35U U54C U60C U67A U78A, 0.04. As for C27U C29A C62U U66C U78C, the figure is 0.16; as for C27U U54A A57G U69C, 0.08. Take U26C U41C A47G G61A: the self-cleavage is 0.45. In the case of C27A U31C C37A U66A U78C, the self-cleavage turned out to be 0.1. A28G A75U U78C: the self-cleavage is 0.8. For A28G A45U G73A, the self-cleavage turned out to be 0.93. As for A28C A45G U49C A56G, the figure is 0.29; as for A28G C32U A45U, 0.06; as for U26C U31C U41C G46U U66C, 0.16.

As to U26C U69C U76C U80C, the self-cleavage is 0.47. As for U26C U41C A45G, the figure is 0.42; as for U26C U41C A45U, 0.26. C27U U41C A65G U80A: the self-cleavage worked out at 0.19. For the variant U26C U41C G53U U67C, the self-cleavage came to 0.38.

With A28C U54C U60C U78C, the self-cleavage was 0.42. Take U26G A45G U69A: the self-cleavage amounted to 0.08. Take A28G C37U A45G U60C: the self-cleavage is 0.29. U26C U58C U80A: the self-cleavage came out at 0.14. For U26G A35C A45G A57G A64U U66A, the self-cleavage is 0.05. Consider C27U U48A U54A U78C, for which the self-cleavage is 0.2. On to A28G C37A U60C, for which the self-cleavage worked out at 0.13. For the variant C27A A28G U60A, the self-cleavage was found to be 0.12.

With C27U U31C A35U U60C U69A, the self-cleavage worked out at 0.08. A28G A45U U51C: the self-cleavage is 0.16. A28C G53A U67C: the self-cleavage came out at 0.17. As to U26G A28G G36U U74C, the self-cleavage is 0.2.

Turning to A28G A35U U51G A57G, the self-cleavage came to 0.16. As for C27U A35G C50U, the figure is 0.39. As for C27U U58C U69G, the figure is 0.18; as for C27U U66C U72A, 0.08; as for U26C U31C A57U U69A, 0.16. In the case of U26G U41C A47U U48C C71A, the self-cleavage came to 0.17.

On to C27U U54G G55C U60C U67C, for which the self-cleavage worked out at 0.08.

On to U26C U43C A56U U72A A77U, for which the self-cleavage worked out at 0.42. Under C27A A56U U78C stands 0.14. As for C27U U60C U72C U78A, the self-cleavage was 0.11. Regarding A28G C32A A64G, the self-cleavage was 0.26. As to A28C U31C C38A U48C U80C, the self-cleavage came to 0.12. For A28G A45U U48A A57G U69C U80C, the self-cleavage came to 0.03. On to A28G A35G A45G C59A U80C, for which the self-cleavage came out at 0.33. Turning to U26G C39U A56G A57U U60A, the self-cleavage was determined as 0.09. Take U26G C34U A64G: the self-cleavage is 0.05. Regarding C27U U58C U66C U69A U78C, the self-cleavage came to 0.09. For U26C U41A U74A, the self-cleavage came to 0.37. Turning to A28G C32U U49C, the self-cleavage was found to be 0.11.

In the case of U26C U51C U78A, the self-cleavage turned out to be 0.55.

In the case of U26C U43A U48C U60C, the self-cleavage stood at 0.15. Regarding A28G A35G U74G A75G, the self-cleavage stood at 1.18. U26C U48C U60C U78C U80C: the self-cleavage was found to be 0.31. With U26C U41C U74C, the self-cleavage is 0.63. Under U26C U51C U67C C68A stands 0.26.

Take C27G A35U A64G U76C: the self-cleavage was 0.11. In the case of A28G A35U U48C U80A, the self-cleavage turned out to be 0.11.

For the variant U26C U41C U69A, the self-cleavage was 0.53. A28C U43A A57G A64G U69C U76C U80C: the self-cleavage came to 0.15. In the case of A28G A47G A65C, the self-cleavage worked out at 0.23. Turning to A28G A65G U69A, the self-cleavage worked out at 0.09. On to U26C U41C U66C, for which the self-cleavage came to 0.39. As for C27U A56C U72A, the self-cleavage was found to be 0.15.

In the case of A28G A47G U54C, the self-cleavage worked out at 0.34. As for A28G A47G U54G, the figure is 0.34. With A28G C37U C79A, the self-cleavage came to 0.22. Take U26C U43C U48C U58C U74C: the self-cleavage is 0.18. Regarding A28C A45U U49C A64U, the self-cleavage stood at 0.18. Consider U26C U31C U41C U72A, for which the self-cleavage is 0.29.

Turning to A28G A35G U41C G52A U67A, the self-cleavage came out at 0.93.

For the variant C27A A35U U43C U54C, the self-cleavage stood at 0.29.

Take A28C U31C A64G: the self-cleavage came to 0.21. Take C27U A45G U72C C79G: the self-cleavage came out at 0.1. In the case of A28G A57G U60C, the self-cleavage is 0.34. Take A28C U67C U69A: the self-cleavage is 0.15. As for U26C U54C U80C, the self-cleavage stood at 0.49.

As for A28G A35G C37G U43C G46U A75G, the self-cleavage turned out to be 0.11. In the case of A28C A45U A56G, the self-cleavage was 0.19. In the case of A28C A45G U54A, the self-cleavage is 0.39.

For U26C U51C U72C, the self-cleavage came out at 0.52. Consider A28G A45G A47U U49C U69C G70A A77U, for which the self-cleavage worked out at 0.1.

Turning to U26C U43C U72C, the self-cleavage is 0.48. Consider A28C G30U A47G U49A U54C U72C, for which the self-cleavage came out at 0.13.

Turning to A28C A35G C44A, the self-cleavage was 0.41. As for A28C G52A A64U, the figure is 0.18. As for A28G A35G C40U U41C, the figure is 1.05; as for U26C U31C U48C U72A, 0.12. Under C27G C44U C59A stands 0.18; under U26G A35G U41A A56G C62U A64G U74A, 0.06. As to U26G G61C U78A, the self-cleavage came to 0.12. As for A28G A56U A65G U67A U72A, the self-cleavage is 0.09. As for C27U U43C A45U, the figure is 0.17; as for C27G A28G G73A U78C, 0.29. Regarding U26C U41A U54C A75U U80A, the self-cleavage was 0.26. Turning to A28G A64G A65U G73A, the self-cleavage came out at 0.17.
